The values that follow come from PubChem BioAssay (NCI).

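Following 48 hours of exposure in 96-well plates, responses at five concentrations were used to interpolate endpoints linearly. At the GI50, growth is halved. The concentration for full growth arrest is given as TGI.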

The assay deals with NCI-H322M lung. The experiment in a line: NCI anticancer screen, dose series, 48 h.

As to `N#C/C(=N\Nc1ccc(F)cc1)C(=O)Nc1cc(-c2ccccc2)nn1-c1ccccc1`, the GI50 is 2.79 µM and the TGI amounted to 12.9 µM.

Regarding `C/C(=C(/c1ccc(O)cc1)c1ccc(OCCN2CCCC2)cc1)c1ccc(Cl)cc1`, the GI50 was 4.16 µM and the TGI is 16.1 µM.

On to `COc1cc(/C=C/C(=O)c2cc(OC)c(OC)c(OC)c2)ccc1OCc1ccccc1`, for which the GI50 is 2.42 µM and the TGI was found to be 8.04 µM.
